Measurements from patent US20050203135A1, “Antagonists for treatment of CD/11CD18 adhesion receptor mediated disorders” (Genentech, Inc., priority 1998, published 2005).

These molecules were tested against CD11a/CD18-ICAM-1 interaction (recombinant human LFA-1 / human 5 domain ICAM-Ig) (Homo sapiens, UniProt P05107+P20701). Conditions: PLM2(μM), PLM2 antibody capture format of LFA/ICAM assay.
`CC(=O)NCc1cccc(C(=O)NC[C@H](NC(=O)c2ccc(C(=O)NCc3cccc(O)c3)cc2Cl)C(=O)O)c1` [Example 153] gave an IC50 of 0.003 µM.
`CCC(=O)NCc1ccc(C(=O)NC[C@H](NC(=O)c2ccc(C(=O)NCc3cccc(O)c3)cc2Cl)C(=O)O)cc1` [Example 155] showed an IC50 of 0.006 µM.
`CCCC(=O)NCc1ccc(C(=O)NC[C@H](NC(=O)c2ccc(C(=O)NCc3cccc(O)c3)cc2Cl)C(=O)O)cc1` [Example 156] showed an IC50 of 0.009 µM.
Molecule `CC(=O)NCc1ccc(C(=O)NC[C@H](NC(=O)c2ccc(C(=O)NCc3cccc(O)c3)cc2Cl)C(=O)O)cc1` [Example 157] has an IC50 of 0.007 µM.
Molecule `CCC(=O)NCCC(=O)NC[C@H](NC(=O)c1ccc(C(=O)NCc2cccc(O)c2)cc1Cl)C(=O)O` [Example 159] has an IC50 of 0.017 µM.
`CC(=O)NCCC(=O)NC[C@H](NC(=O)c1ccc(C(=O)NCc2cccc(O)c2)cc1Cl)C(=O)O` [Example 160] gave an IC50 of 0.004 µM.
For `CC(=O)NCC(=O)NC[C@H](NC(=O)c1ccc(C(=O)NCc2cccc(O)c2)cc1Cl)C(=O)O` [Example 162], the IC50 was 0.004 µM.
Work on `CCCC(=O)N1CCCC(C(=O)NCCC[C@H](NC(=O)c2ccc(C(=O)NCc3cccc(O)c3)cc2Cl)C(=O)O)C1` (stereo partly shown) [Example 165] yielded an IC50 of 0.015 µM.
`CC(=O)N1CCCC(C(=O)NCCC[C@H](NC(=O)c2ccc(C(=O)NCc3cccc(O)c3)cc2Cl)C(=O)O)C1` (stereo partly shown) [Example 166] gave an IC50 of 0.018 µM.
Work on `CCCC(=O)N1CCC(C(=O)NCCC[C@H](NC(=O)c2ccc(C(=O)NCc3cccc(O)c3)cc2Cl)C(=O)O)CC1` [Example 169] yielded an IC50 of 0.006 µM.
`CC(=O)N1CCC(C(=O)NCCC[C@H](NC(=O)c2ccc(C(=O)NCc3cccc(O)c3)cc2Cl)C(=O)O)CC1` [Example 170] was tested, and the IC50 was 0.007 µM.
`O=C(NCc1cccc(O)c1)c1ccc(C(=O)N[C@@H](CCCNC(=O)C2CCCCN2)C(=O)O)c(Cl)c1` (stereo partly shown) [Example 172] gave an IC50 of 0.037 µM.
In the case of `CCC(=O)NCc1cccc(C(=O)NCCC[C@H](NC(=O)c2ccc(C(=O)NCc3cccc(O)c3)cc2Cl)C(=O)O)c1` [Example 173], the IC50 is reported as 0.01 µM.
`CCCC(=O)NCc1cccc(C(=O)NCCC[C@H](NC(=O)c2ccc(C(=O)NCc3cccc(O)c3)cc2Cl)C(=O)O)c1` [Example 174] was tested, and the IC50 was 0.004 µM.
`CC(=O)NCc1cccc(C(=O)NCCC[C@H](NC(=O)c2ccc(C(=O)NCc3cccc(O)c3)cc2Cl)C(=O)O)c1` [Example 175] was tested, and the IC50 was 0.005 µM.
Work on `CCC(=O)NCc1ccc(C(=O)NCCC[C@H](NC(=O)c2ccc(C(=O)NCc3cccc(O)c3)cc2Cl)C(=O)O)cc1` [Example 177] yielded an IC50 of 0.006 µM.
Work on `CCCC(=O)NCc1ccc(C(=O)NCCC[C@H](NC(=O)c2ccc(C(=O)NCc3cccc(O)c3)cc2Cl)C(=O)O)cc1` [Example 178] yielded an IC50 of 0.011 µM.
In the case of `CC(=O)NCc1ccc(C(=O)NCCC[C@H](NC(=O)c2ccc(C(=O)NCc3cccc(O)c3)cc2Cl)C(=O)O)cc1` [Example 179], the IC50 is reported as 0.009 µM.
`CCC(=O)NCCC(=O)NCCC[C@H](NC(=O)c1ccc(C(=O)NCc2cccc(O)c2)cc1Cl)C(=O)O` [Example 181] was tested, and the IC50 was 0.016 µM.
For `CCCC(=O)NCCC(=O)NCCC[C@H](NC(=O)c1ccc(C(=O)NCc2cccc(O)c2)cc1Cl)C(=O)O` [Example 182], the IC50 was 0.011 µM.
`CC(=O)NCCC(=O)NCCC[C@H](NC(=O)c1ccc(C(=O)NCc2cccc(O)c2)cc1Cl)C(=O)O` [Example 183] gave an IC50 of 0.013 µM.
`CCC(=O)NCC(=O)NCCC[C@H](NC(=O)c1ccc(C(=O)NCc2cccc(O)c2)cc1Cl)C(=O)O` [Example 185] showed an IC50 of 0.016 µM.
For `CCCC(=O)NCC(=O)NCCC[C@H](NC(=O)c1ccc(C(=O)NCc2cccc(O)c2)cc1Cl)C(=O)O` [Example 186], the IC50 was 0.015 µM.
In the case of `CC(=O)NCC(=O)NCCC[C@H](NC(=O)c1ccc(C(=O)NCc2cccc(O)c2)cc1Cl)C(=O)O` [Example 187], the IC50 is reported as 0.017 µM.
`CCC(=O)N1CCCC(C(=O)NCC[C@H](NC(=O)c2ccc(C(=O)NCc3cccc(O)c3)cc2Cl)C(=O)O)C1` (stereo partly shown) [Example 189] gave an IC50 of 0.018 µM.
`CCCC(=O)N1CCCC(C(=O)NCC[C@H](NC(=O)c2ccc(C(=O)NCc3cccc(O)c3)cc2Cl)C(=O)O)C1` (stereo partly shown) [Example 190] was tested, and the IC50 was 0.016 µM.
Work on `CC(=O)N1CCCC(C(=O)NCC[C@H](NC(=O)c2ccc(C(=O)NCc3cccc(O)c3)cc2Cl)C(=O)O)C1` (stereo partly shown) [Example 191] yielded an IC50 of 0.016 µM.
Work on `CCC(=O)N1CCC(C(=O)NCC[C@H](NC(=O)c2ccc(C(=O)NCc3cccc(O)c3)cc2Cl)C(=O)O)CC1` [Example 193] yielded an IC50 of 0.014 µM.
For `CC(=O)N1CCC(C(=O)NCC[C@H](NC(=O)c2ccc(C(=O)NCc3cccc(O)c3)cc2Cl)C(=O)O)CC1` [Example 195], the IC50 was 0.016 µM.
For `O=C(NCc1cccc(O)c1)c1ccc(C(=O)N[C@@H](CCNC(=O)C2CCCCN2)C(=O)O)c(Cl)c1` (stereo partly shown) [Example 197], the IC50 was 0.017 µM.
`CCC(=O)NCc1cccc(C(=O)NCC[C@H](NC(=O)c2ccc(C(=O)NCc3cccc(O)c3)cc2Cl)C(=O)O)c1` [Example 198] was tested, and the IC50 was 0.019 µM.
Work on `CCCC(=O)NCc1cccc(C(=O)NCC[C@H](NC(=O)c2ccc(C(=O)NCc3cccc(O)c3)cc2Cl)C(=O)O)c1` [Example 199] yielded an IC50 of 0.029 µM.
`CC(=O)NCc1cccc(C(=O)NCC[C@H](NC(=O)c2ccc(C(=O)NCc3cccc(O)c3)cc2Cl)C(=O)O)c1` [Example 200] showed an IC50 of 0.018 µM.
`CCC(=O)NCc1ccc(C(=O)NCC[C@H](NC(=O)c2ccc(C(=O)NCc3cccc(O)c3)cc2Cl)C(=O)O)cc1` [Example 202] showed an IC50 of 0.023 µM.
Molecule `CCCC(=O)NCc1ccc(C(=O)NCC[C@H](NC(=O)c2ccc(C(=O)NCc3cccc(O)c3)cc2Cl)C(=O)O)cc1` [Example 203] has an IC50 of 0.037 µM.
In the case of `CC(=O)NCc1ccc(C(=O)NCC[C@H](NC(=O)c2ccc(C(=O)NCc3cccc(O)c3)cc2Cl)C(=O)O)cc1` [Example 204], the IC50 is reported as 0.025 µM.
`CCC(=O)NCCC(=O)NCC[C@H](NC(=O)c1ccc(C(=O)NCc2cccc(O)c2)cc1Cl)C(=O)O` [Example 206] was tested, and the IC50 was 0.023 µM.
`CCCC(=O)NCCC(=O)NCC[C@H](NC(=O)c1ccc(C(=O)NCc2cccc(O)c2)cc1Cl)C(=O)O` [Example 207] gave an IC50 of 0.062 µM.
In the case of `CC(=O)NCCC(=O)NCC[C@H](NC(=O)c1ccc(C(=O)NCc2cccc(O)c2)cc1Cl)C(=O)O` [Example 208], the IC50 is reported as 0.021 µM.
`CCC(=O)NCC(=O)NCC[C@H](NC(=O)c1ccc(C(=O)NCc2cccc(O)c2)cc1Cl)C(=O)O` [Example 210] showed an IC50 of 0.022 µM.
`CCCC(=O)NCC(=O)NCC[C@H](NC(=O)c1ccc(C(=O)NCc2cccc(O)c2)cc1Cl)C(=O)O` [Example 211] was tested, and the IC50 was 0.019 µM.
Molecule `CC(=O)NCC(=O)NCC[C@H](NC(=O)c1ccc(C(=O)NCc2cccc(O)c2)cc1Cl)C(=O)O` [Example 212] has an IC50 of 0.016 µM.
`CCC(=O)N1CCCC(C(=O)NCCCC[C@H](NC(=O)c2ccc(C(=O)NCc3cccc(O)c3)cc2Cl)C(=O)O)C1` (stereo partly shown) [Example 214] gave an IC50 of 0.028 µM.
`CCCC(=O)N1CCCC(C(=O)NCCCC[C@H](NC(=O)c2ccc(C(=O)NCc3cccc(O)c3)cc2Cl)C(=O)O)C1` (stereo partly shown) [Example 215] showed an IC50 of 0.027 µM.
`CC(=O)N1CCCC(C(=O)NCCCC[C@H](NC(=O)c2ccc(C(=O)NCc3cccc(O)c3)cc2Cl)C(=O)O)C1` (stereo partly shown) [Example 216] gave an IC50 of 0.022 µM.
`CCC(=O)N1CCC(C(=O)NCCCC[C@H](NC(=O)c2ccc(C(=O)NCc3cccc(O)c3)cc2Cl)C(=O)O)CC1` [Example 218] gave an IC50 of 0.018 µM.
In the case of `CCCC(=O)N1CCC(C(=O)NCCCC[C@H](NC(=O)c2ccc(C(=O)NCc3cccc(O)c3)cc2Cl)C(=O)O)CC1` [Example 219], the IC50 is reported as 0.018 µM.
Molecule `CC(=O)N1CCC(C(=O)NCCCC[C@H](NC(=O)c2ccc(C(=O)NCc3cccc(O)c3)cc2Cl)C(=O)O)CC1` [Example 220] has an IC50 of 0.016 µM.
For `CC(=O)N1CCCCC1C(=O)NCCCC[C@H](NC(=O)c1ccc(C(=O)NCc2cccc(O)c2)cc1Cl)C(=O)O` (stereo partly shown) [Example 222], the IC50 was 0.021 µM.
`CCC(=O)NCc1cccc(C(=O)NCCCC[C@H](NC(=O)c2ccc(C(=O)NCc3cccc(O)c3)cc2Cl)C(=O)O)c1` [Example 224] showed an IC50 of 0.026 µM.
Work on `CC(=O)NCc1ccc(C(=O)NCCCC[C@H](NC(=O)c2ccc(C(=O)NCc3cccc(O)c3)cc2Cl)C(=O)O)cc1` [Example 226] yielded an IC50 of 0.025 µM.
In the case of `CC(=O)NCCC(=O)NCCCC[C@H](NC(=O)c1ccc(C(=O)NCc2cccc(O)c2)cc1Cl)C(=O)O` [Example 228], the IC50 is reported as 0.018 µM.
`CC(=O)NCC(=O)NCCCC[C@H](NC(=O)c1ccc(C(=O)NCc2cccc(O)c2)cc1Cl)C(=O)O` [Example 230] was tested, and the IC50 was 0.016 µM.
In the case of `CCCOC(=O)NC[C@H](NC(=O)c1ccc(C(=O)NCc2cccc(O)c2)cc1Cl)C(=O)O` [Example 231], the IC50 is reported as 0.003 µM.
In the case of `CC(C)OC(=O)NC[C@H](NC(=O)c1ccc(C(=O)NCc2cccc(O)c2)cc1Cl)C(=O)O` [Example 233], the IC50 is reported as 0.001 µM.
Work on `COC(=O)NC[C@H](NC(=O)c1ccc(C(=O)NCc2cccc(O)c2)cc1Cl)C(=O)O` [Example 234] yielded an IC50 of 0.044 µM.
`CCOC(=O)NC[C@H](NC(=O)c1ccc(C(=O)NCc2cccc(O)c2)cc1Cl)C(=O)O` [Example 235] was tested, and the IC50 was 0.002 µM.
`C[C@H](NC(=O)c1ccc(NC(=O)CNC(=O)c2cccs2)cc1Cl)C(=O)O` [Example 257] gave an IC50 of 0.042 µM.
Work on `C[C@H](NC(=O)c1ccc(NC(=O)[C@H](CCC(N)=O)NC(=O)c2ccccc2)cc1Cl)C(=O)O` [Example 262] yielded an IC50 of 0.075 µM.
Molecule `NCCCC[C@H](NC(=O)c1ccc(CNC(=O)/C=C/c2ccco2)cc1Cl)C(=O)O` [Example 268] has an IC50 of 0.019 µM.
`COc1cccc(C(NC(=O)c2cccs2)C(=O)Nc2ccc(C(=O)N[C@@H](C)C(=O)O)c(Cl)c2)c1` (stereo partly shown) [Example 269] gave an IC50 of 0.046 µM.
For `NC(=O)C[C@H](NC(=O)c1ccc(C(=O)N[C@H](CO)C(=O)Nc2cccc(O)c2)cc1Cl)C(=O)O` [Example 272], the IC50 was 0.08 µM.
In the case of `CC(NC(=O)c1c(Cl)cc(CNC(=O)C=Cc2ccco2)cc1Cl)C(=O)O` (stereo not shown) [Example 273], the IC50 is reported as 0.016 µM.
`NC(=O)CC(NC(=O)c1c(Cl)cc(CNC(=O)C=Cc2ccco2)cc1Cl)C(=O)O` (stereo not shown) [Example 274] showed an IC50 of 0.006 µM.
Molecule `Cc1cc(CNC(=O)C=Cc2cccs2)cc(C)c1C(=O)NC(CCCCN)C(=O)O` (stereo not shown) [Example 289] has an IC50 of 0.074 µM.
Work on `Cc1cc(CNC(=O)/C=C/c2ccco2)cc(C)c1C(=O)N[C@@H](CNC(=O)c1ccco1)C(=O)O` [Example 290] yielded an IC50 of 0.009 µM.
`O=C(NCc1cccc(O)c1)c1ccc(C(=O)N[C@@H](CCCCNCc2ccco2)C(=O)O)c(Cl)c1` [Example 291] showed an IC50 of 0.007 µM.
